# Test results from the supplement of paper PMC11417369.
# The list shows a part of the results.
# Tested on: PfAP2-HC AP2 domain (GST-tagged)
# Experiment: gcPBM binding intensity (ln(normalized median fluorescence intensity)); higher = stronger DNA binding
# Summary of the method: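 For binding intensity, the highest Masliner-normalised natural-log median intensity across replicate spots of either probe orientation was taken. Protein bound to the array was stained with Alexa488 anti-GST antibody and scanned at 488 nm. The protein, GST-tagged P. falciparum DNA-binding domains from E. coli at about 25 μg on average, had been applied for 1 h to an Agilent 4 × 180k array of primer-extended double-stranded 36-bp intergenic genomic probes and negative controls.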
row,Sequence,gcPBM binding intensity (ln)
1,TTTTTATGTGTATATTATTACATTTACATCTTTAAC [CACACA_negctrl_site1676],9.77
2,ACAAGACAACAAGGAAGTACTCATAAATATATTTGG [XGTACX_site1423],9.8
3,TGTAAATATAAAAGATAATGATAAAAGGGACATTTT [CACACA_negctrl_site661],9.74
4,AATATATATATGTGTACACATCCAAAATAGGCATAC [CACACA_site5705],9.98
5,ATCTATATTATAATAACACACATATATTATAGTATA [CACACA_site6330],9.7
6,ATATATATATAAATATGTACATATTTATATATGAAT [XGTACX_site3220],9.64
7,AAGAAAAATACTACGTGTACCAAACTTCCTACCAAC [XGTACX_site1426],10.4
8,TATATATATATATTATGTACATATAAATATATTTTT [XGTACX_site1509],9.6
9,TTATTTATTCTATGTGCATGTTATTTTTTTTTTTCG [TGCATGCA_site262],9.73
10,AAAAATAAGATATATACACACATATAAATATAAATA [CACACA_site7396],10.1
11,TTTGTATTAAAAAAAAAAAAAAAAAAAATGAATAAA [TGCATGCA_negctrl_site292],9.16
12,ATAACGGAAAAAAAAAGTACATGATATAAACATGAA [XGTACX_site8428],9.69
13,TTTTTTTTTTTTTTTTTTTTTTTTCATTTGATATTA [TGCATGCA_negctrl_site112],8.67
14,CTTTAAACCCTGAACACACACAAATACACCCAAAAA [CACACA_site4297],10.6
15,TATATATATATATGTGGTACATAAAATTATTATTTT [XGTACX_site4554],9.9
16,ATAAAATTATCTACATGTACTCATATATATTTGTTT [XGTACX_site5911],10
17,AGAGAGAAAGTTATAACATGCAACAATTTTTAGAAG [TGCATGCA_site1],9.72
18,AAAGGAAAAGTTGACTGTACATAAGTAAAAAATAAT [XGTACX_site788],9.97
19,AAAAAAAAAAAAAACACACAGAAATATATATATATT [CACACA_site832],9.89
20,TTTATACAAATATGTACACACTAAATATATATTATG [CACACA_site4413],9.82
21,ATTCATTCCATACTTTAACACACAAATATATTTAAT [CACACA_site7930],9.83
22,TCATATTTATATAAATGTACTTAATTGGTTTCTTTA [XGTACX_site7848],9.55
23,ATGTTATTAATAATTGCACACATTTTTTTTTTTTTT [CACACA_site3920],9.93

row,Sequence,gcPBM binding intensity (ln)
1,AGATTGTAAGTAAACACACACACATATATATGTATA [CACACA_site675],10.4
2,TTTTTGTAACCGATTCTGCACTGAGAAGCACATATA,9.44
3,ATATTATACGCATATGTGCGCATACATTTTTTTGCA [GTGCAC_site9540],9.75
4,TTATTTACAAAACAAATCAAAATATCCAAAAGAATA [CACACA_negctrl_site1789],9.46
5,GAAATTACTTTATAAACACACATTTATTTTATTTTA [CACACA_site7007],9.63
6,GGCATATATATATGCACACATACATATATACATGTG [CACACA_site3859],10.1
7,TACACATACAGACATACACACATACCCATATACTCA [CACACA_site5037],10.4
8,TATATATGGATATATACACACAACGGTTATAAATAT [CACACA_site6655],10.1
9,AAAAAAATAAAATATATATATATATATATATATATA [GTGCAC_negctrl_site706],9.31
10,CTTAAAATATATTTAGTGCATATACTAATATATTAT,9.61
11,TATATATATATATTATGTACATATATAAATTAACAT [XGTACX_site3368],9.64
12,AATATAGGAATATGCACACATATATACATACATACA [CACACA_site1521],9.91
13,TTTTTTAAAGTTTAAAGTACATATAAAAATATATAA [XGTACX_site5267],9.28
14,TATGAAAAAAAAAAAAAAAAAAAAAAAAAAAAAAAA [XGTACX_negctrl_site587],8.64
15,ATATATATATATTTATGTACATATTATTTATTCTTT [XGTACX_site6567],9.99
16,ATTATTTGATTAAAGGTGCAAGGATAATAATAAAAC,9.79
17,TAATGGTATAAAAAATGTACATGTTTTTTTACAATT [XGTACX_site4285],9.65
18,TATTATATAATATACTGTACAATATCCATTATTTAC [XGTACX_site7091],9.71
19,TATATTTACTTATATGCACACATAAATGTGAATTAT [CACACA_site9258],9.79
20,ACATATAATAAAATAGTGCATTGTTAGTTTTATATA,9.64
21,AATTAATAAAAAAGGTGTACAGTAAATGCAATAATC [XGTACX_site7956],9.93
22,TCTTTTATATATAATAATTATATATAACATTCAAAC [GTGCAC_negctrl_site112],9.65
